From paper PMC10668032
The list shows a part of the results. At the low end of the ranking, values are background and their order means little.

molecular target: SIX1-Q177R homeodomain (UniProt Q15475); assay: universal protein binding microarray; settings: Universal all-10-mer PBM (8x60K, AMADID 030236), 300 nM GST-tagged protein, Alexa Fluor 488 anti-GST; buffer, salt, pH and temperature not stated; high values mean tight binding; most listed sequences are background and not binding sites; double strand, one strand shown

Sequence | binding signal [E-score]
AATGACCA | -0.297
ACATTCGC | -0.155
AGGTCGAC | 0.014
ATCCGGGC | 0.0339
CGCGGTAA | -0.02
CGCCACAA | 0.142
CATGTGCC | -0.0789
ACAGCTTA | -0.163
GCCTAGCC | -0.192
GCTTGAAC | 0.000595
AGGTGGTC | -0.0851
AATTCGGG | -0.0131
CCCCGACC | 0.157
GATTCTCC | -0.103
ATCCCAGG | 0.123
CACCGGTG | 0.418
GAGGGATA | 0.145
CGTGTTAG | 0.38
ATTAGCCC | -0.174
GTCAAAAC | -0.00246
ACTCTAAA | -0.089
ACCGGTTC | -0.064
CGGAATAG | -0.114
TGCAAAAA | -0.114

Sequence | binding signal [E-score]
CTGCCACC | 0.0483
CCCTAACC | 0.04
CAGATATG | -0.0084
AGCGAGCC | -0.162
GGACTGGA | -0.078
ACCGGTTG | 0.145
TGCAACCA | -0.0754
ACGGACAG | -0.0252
GACGGGCA | -0.108
CCACTCCA | 0.152
ATTAGCTC | -0.109
CCTGGGCG | 0.0197
CGGTGCCC | 0.029
CGAGACAC | 0.389
GTATTAGA | 0.0952
ACTCTTAT | 0.212
ACTAAAGC | -0.061
GGCCCTAC | -0.139
ATCTGGCG | -0.0179
CGGGCGAG | 0.00069
CGCAAGAA | -0.086
CCGCATGC | -0.00511
CTAATCCC | -0.0095
GAAAGACC | -0.22

Sequence | binding signal [E-score]
CCCGAACA | 0.17
CCAATCTC | -0.175
ATGTCTTC | -0.0422
CTCTGAGC | -0.0902
ACAGTCGG | 0.136
GAGACGCC | 0.0436
AAGGAATA | -0.237
ATATCAAT | -0.0784
AAGCTAAA | -0.351
CACCAGCG | 0.22
ACTATGAC | 0.0171
ATTAGTTC | -0.0385
TCGGGTAA | 0.194
AGAGGCAA | -0.183
CAACGGAG | 0.0118
AGAGAGCC | -0.259
GCTCCCTA | -0.118
ATGAATTG | -0.0513
TGATATAA | -0.155
GCAGTAGC | 0.0276
GGTCCGTA | 0.189
ATGGTGAG | 0.0305
AAAGCTGC | -0.102
GTTTCTAA | 0.0393

Sequence | binding signal [E-score]
ATACCCTA | 0.312
CGTTTGGC | -0.187
GAGACCTC | -0.0967
CTGCCATA | -0.109
ACGCCATG | 0.0868
CGAAAGAG | -0.304
ACTTACGA | 0.0949
GAGTCTAA | -0.0765
CGGATTCA | 0.0346
GACGGTCA | -0.257
GGCCGTTA | -0.0511
AATCTCCG | -0.145
GGTGTATA | 0.458
ATGATCCG | 0.0063
AAAAATAA | -0.211
CAAGCGCC | -0.15
CTTGGGAC | -0.0509
ACAAGTCC | -0.163
AACGTTCA | -0.227
AATGAGAT | -0.052
CTCACCTA | -0.0894
CCGAATCG | -0.0316
